# Among all 320,000 compounds or so, about 200 (0.062%) were called active. This list was built around the results that the source calls inconclusive (neither active nor inactive); the mix of calls is not that of the screen. Calls follow the shape of the dose curve; as a rule, active = well fitted activation curve with a large enough effect; inconclusive = small, poorly fitted or top-dose-only effect; inactive = no such curve, though single readings can be large or run the other way. Potencies of inconclusive entries are left out as doubtful fits.
# Experiment: qHTS assay for re-activators of p53 using a Luc reporter; also: nearly all actives have a fitted effect of over 45% in size; as to activity change, positive = activation: % of control where 0% means no effect
# Settings: H1299 p53-A138V BP100-luciferase reporter, luminescence, 24 h; series mostly up to 92.2 µM; activity change, positive = activation: at the top concentration
# Outline: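 p53-null H1299 cells stably carrying temperature-sensitive p53-A138V and a BP100-luciferase reporter were pinned with compounds (4-point, 1:5 series) and held 24 hrs at 37 deg C. Luminescence was read 10 min after detection reagent.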
# Potency is read from the fitted curve at half-maximal effect; tags tell the direction and shape of the fitted curve.
Structure (SMILES),Potency,"activity change, positive = activation"
CCC(=O)Nc1nc(-c2ccc3c(c2)OCCO3)cs1,"inconclusive [activator, full curve, poor fit]",
COc1ccc(C)cc1NC(=O)C1CCN(C(=O)c2ccc(C(C)(C)C)cc2)CC1,,inactive: 15.9%
CC1(C)CC(=O)C2=C(C1)Nc1ccccc1N=C2,"inconclusive [activator, partial curve, poor fit]",
O=C(Nc1ccccc1)OCc1ccccn1,"inconclusive [activator, partial curve, poor fit]",
COCC1CCCCN1C(=O)c1ccc(OC)c(OC2CCN(C(C)C)CC2)c1 (configuration not stated),"inconclusive [activator, single point]",
Cc1nc(SCC(=O)NC(C)c2ccccc2)c2oc3ccccc3c2n1 (configuration not stated),,inactive: -0.362%
O=C(NCc1ccco1)c1cc(-c2cccs2)on1,"inconclusive [activator, partial curve, poor fit]",
Cc1cccc(N=c2c([N+](=O)[O-])nn(-c3ccc(Cl)cc3)n2O)c1,"inconclusive [activator, partial curve, poor fit]",
Cc1cc(-n2c(C)cc(C(=O)COc3cc(F)ccc3[N+](=O)[O-])c2C)no1,"inconclusive [activator, partial curve, poor fit]",
O=C(NC1CCCCCC1)c1ccc([N+](=O)[O-])s1,"inconclusive [activator, single point]",
CCOc1ccc2c(c1)C(C)=CC(C)(C)N2C(=O)Nc1ccccc1,,inactive: 8.31%
CC(=O)c1cccc(NC(=O)C(OC(=O)/C=C/c2ccc3c(c2)OCO3)c2ccccc2)c1 (configuration not stated),,inactive: 10.3%
O=C(CSc1nnc(-c2ccccn2)o1)Nc1cccc(Cl)c1,"inconclusive [activator, partial curve, poor fit]",
O=CN(/C=C1\Sc2ccccc2C1=O)Cc1ccccc1,"inconclusive [activator, partial curve, poor fit]",
COc1cc(/C=N/NC(=O)Cc2ccccc2)cc([N+](=O)[O-])c1O,"inconclusive [activator, single point]",
CCOc1ccccc1OC(=O)c1cc2ccccc2oc1=O,,inactive: 1.03%
Cn1c2c(c(=O)n(C)c1=O)CN(CCCN1CCOCC1)CN2,"inconclusive [activator, single point]",
COc1ccc(C/C(N)=N/OC(=O)c2cccs2)cc1,"inconclusive [activator, full curve, poor fit]",
CCOc1ccc(Nc2nc3ccccc3n3nnnc23)cc1,"inconclusive [activator, partial curve, poor fit]",
C/C(=N\NC(=O)c1ccccc1)C1C2C=CC(C2)C1(C)C (configuration not stated),"inconclusive [activator, partial curve, poor fit]",
Oc1c(I)cc(Cl)c2cccnc12,,inactive: 15.8%
CCCOc1ccc(-c2c(C(=O)N/N=C/C3CC=CCC3)nnn2-c2nonc2N)cc1 (configuration not stated),"inconclusive [activator, single point]",
O=C(CNC(=S)N(CCCN1CCOCC1)Cc1cccs1)NC1CCCCCCC1,,inactive: 1.22%

Structure (SMILES),Potency,"activity change, positive = activation"
O=C(Nc1ccc2c(c1)OCO2)Nc1cnccn1,"inconclusive [activator, partial curve, poor fit]",
C=CCNC(=S)Nc1ccc(Br)cc1F,"inconclusive [activator, full curve, poor fit]",
O=C(CSc1nc2ccccc2[nH]1)c1ccco1,"inconclusive [activator, partial curve, poor fit]",
CCc1ccc(OCC(=O)N/N=C\c2ccco2)c([N+](=O)[O-])c1,"inconclusive [activator, partial curve, poor fit]",
CCS(=O)(=O)N1CCCC(c2nc(-c3cccc(OC)c3)no2)C1 (configuration not stated),"inconclusive [activator, single point]",
COc1ccc(NC(=O)c2nnn(CC(=O)Nc3ccc4c(c3)OCO4)c2N)c(OC)c1,"inconclusive [activator, partial curve, poor fit]",
COc1ccc2nc(N3CCCC(O)C3)c(C#N)cc2c1 (configuration not stated),"inconclusive [activator, partial curve, poor fit]",
CC(C)(C)c1ccc(NC(=O)Nc2ccc(OCC(=O)N3CCOCC3)cc2)cc1,,inactive: 26.1%
O=C(CCN1C(=O)c2ccccc2C1=O)Nc1ccc(-c2cn3ccsc3n2)cc1,"inconclusive [activator, single point]",
CC(C)CC(=O)Nc1ccc(C(=O)COC(=O)Cc2n[nH]c(=O)c3ccccc23)cc1,,inactive: -3.14%
O=C(NCCO)c1ccc2c3n(nc2c1)-c1ccccc1CO3,"inconclusive [activator, full curve, poor fit]",
C(=N\Nc1nc2ccccc2[nH]1)/c1ccccn1,"inconclusive [activator, full curve, poor fit]",
c1ccc(CSc2nnc(-c3cccs3)o2)cc1,"inconclusive [activator, partial curve, poor fit]",
C/C(=N\NC(=O)c1nc2ccccn2c1C)c1ccc2c(c1)OCO2,,inactive: 21.7%
CC(C)c1onc(C(=O)N2CCN(C(c3ccccc3)c3ccccc3)CC2)c1[N+](=O)[O-],,inactive: -5.6%
CCCCn1c(N)c(N(CC)C(=O)c2cccc(S(=O)(=O)N3CCN(C)CC3)c2)c(=O)[nH]c1=O,,inactive: 0.204%
Cc1nn(-c2ccccc2)c(C)c1/C=N/NC(=O)c1cc(-c2cccs2)[nH]n1,,inactive: 27.1%
CNS(=O)(=O)c1ccc(NC(=O)c2ccccn2)cc1,"inconclusive [activator, partial curve, poor fit]",
COc1ccccc1C(=O)NC(=S)Nc1ccc(N2CCCC2)cc1,"inconclusive [activator, partial curve, poor fit]",
COc1ccc(C(=O)Nc2ccc(SC(F)F)cc2)cc1,"inconclusive [activator, full curve, poor fit]",
O=C(/C=C/N1CCOCC1)c1coc2ccccc12,"inconclusive [activator, partial curve, poor fit]",
Cc1ccc2nc(N3C(=O)C(O)=C(C(=O)c4ccco4)C3c3ccc(C)o3)sc2c1 (configuration not stated),,inactive: 25.1%
O=C(CSc1nc2ccccc2s1)N1CCCCC1,"inconclusive [activator, partial curve, poor fit]",

Structure (SMILES),Potency,"activity change, positive = activation"
Oc1ccccc1Oc1ncc(Br)c(Cl)n1,"inconclusive [activator, single point]",
C=CCn1c(=O)c(C(=O)NCc2ccc3c(c2)OCO3)c(O)c2cc(OC)c(OC)cc21,"inconclusive [activator, single point]",
Cc1cc(-n2c(C)cc(C(=O)COc3ccc(F)c(F)c3)c2C)no1,"inconclusive [activator, full curve, poor fit]",
Cc1cccc(NC(=S)NNC(=O)c2ccco2)c1,,inactive: 13.9%
CCCC(=O)c1c[nH]c(C(=O)NCCc2ccccn2)c1,"inconclusive [activator, single point]",
O=C(CCC(=O)N/N=C/c1ccccc1O)NCc1ccccc1,"inconclusive [activator, partial curve, poor fit]",
C1=C(CCNc2ncnc3c2cnn3-c2ccccc2)CCCC1,"inconclusive [activator, partial curve, poor fit]",
Cc1csc(NC(=O)CSc2nsc(SCC(=O)Nc3nc(C)cs3)c2C#N)n1,"inconclusive [activator, partial curve, poor fit]",
O=C(Cn1cc(C(F)(F)F)cc(Cl)c1=O)NCc1ccccc1,"inconclusive [activator, full curve]",
COc1ccc(OC)c(/C=N/NC(=O)c2cc3c(OC)c(OC)ccc3[nH]2)c1,,inactive: -3.45%
COc1ccc(/C=C2\CCc3ccccc3C2=O)cc1Cn1cccn1,"inconclusive [activator, partial curve, poor fit]",
Cc1ccc(NC(=O)NNC(=O)c2cc3ccccc3cc2O)cc1C,,inactive: 6.07%
Cc1ccc(-c2nc3c(Cl)cc(Cl)cc3c(=O)n2O)cc1,"inconclusive [activator, single point]",
c1ccc2[nH]c(-c3ccnc4ccccc34)nc2c1,"inconclusive [activator, full curve, poor fit]",
COc1ccc(C(=O)Nc2ccccc2C(=O)O)cc1Cl,"inconclusive [activator, partial curve, poor fit]",
Cc1ccccc1OCCN1C(=O)c2ccccc2C1=O,"inconclusive [activator, partial curve]",
O=C1NC(=NCc2ccccc2)S/C1=C/c1ccc(O)cc1,"inconclusive [activator, partial curve, poor fit]",
COc1ccc(NC(=O)CCNS(=O)(=O)c2cccc3nonc23)cc1,"inconclusive [activator, single point]",
CCCc1ccc2oc(C(=O)N(Cc3nccn3C)C(C)C)c(C)c2c1,"inconclusive [activator, partial curve, poor fit]",
Cn1nnc2c(NCc3ccco3)nccc21,,inactive: 1.95%
CN(CC(=O)Nc1ccc2c(c1)OCCO2)S(=O)(=O)c1ccc(F)cc1,"inconclusive [activator, full curve, poor fit]",
